# Results reported in PubChem BioAssay AID588591 (National Center for Advancing Translational Sciences (NCATS), 2011).
# Out of some 390,000 compounds screened, about 4,700 (1.2%) were called active. The shares of active, inactive and inconclusive entries below differ from those in the screen. The call rests on the fitted dose curve; in most records, active means well fitted inhibition curve with a large enough effect; inconclusive means small, poorly fitted or top-dose-only effect, or another doubt; inactive means no such curve, though single readings can be large or run the other way. A potency beside an inconclusive call is a rough fit, not a confirmed value.
# Biological target: DNA polymerase eta (Homo sapiens) (UniProt Q9Y253)
# Assay: qHTS for Inhibitors of Polymerase Eta
# Settings: recombinant Pol eta, fluorescent DNA replication assay; series mostly up to 114 µM; activity change, negative = inhibition: at the top concentration
# Summary of the method: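 Fluorescent replication assay: 50 nM final substrate added after a 15 min room-temperature compound preincubation with 10 nM enzyme. Signal taken at 0 min and again at 10 min.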
# On the % scale 0 is the no-effect control and ±100 the full control effect; potency means the concentration at half of the fitted maximal effect; tags describe the fitted curve by direction and shape.
# Sequence of UniProt Q9Y253 (Q9Y253 whole entry, looked up): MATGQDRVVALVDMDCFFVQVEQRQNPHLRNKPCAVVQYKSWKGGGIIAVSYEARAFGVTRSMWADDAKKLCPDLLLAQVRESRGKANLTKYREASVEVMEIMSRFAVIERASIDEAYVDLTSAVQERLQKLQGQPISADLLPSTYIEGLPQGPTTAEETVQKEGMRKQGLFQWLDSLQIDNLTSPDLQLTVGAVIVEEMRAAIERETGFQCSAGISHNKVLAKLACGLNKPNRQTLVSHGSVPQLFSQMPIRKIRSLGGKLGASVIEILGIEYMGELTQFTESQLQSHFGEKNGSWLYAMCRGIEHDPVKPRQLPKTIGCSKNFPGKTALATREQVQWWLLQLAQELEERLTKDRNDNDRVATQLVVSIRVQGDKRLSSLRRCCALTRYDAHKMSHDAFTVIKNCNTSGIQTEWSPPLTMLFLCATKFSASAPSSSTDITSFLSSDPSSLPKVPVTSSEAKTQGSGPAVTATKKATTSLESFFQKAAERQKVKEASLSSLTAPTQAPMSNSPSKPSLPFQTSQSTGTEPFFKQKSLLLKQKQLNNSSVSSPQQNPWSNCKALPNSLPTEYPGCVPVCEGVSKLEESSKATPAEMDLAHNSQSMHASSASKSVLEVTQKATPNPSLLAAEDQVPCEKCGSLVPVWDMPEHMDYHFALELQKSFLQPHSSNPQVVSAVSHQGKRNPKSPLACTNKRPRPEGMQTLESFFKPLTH
Compound,Potency,"activity change, negative = inhibition"
COc1ccc(CNC(=O)CSc2nnc3c(n2)[nH]c2ccc(OC)cc23)cc1,"inconclusive: 44.7 µM [inhibitor, partial curve]",–
NNC(=O)c1oc2nc(-c3ccco3)cc(-c3ccco3)c2c1N,"inconclusive: 56.2 µM [inhibitor, partial curve]",–
COc1ccc(N2CCC(CNC(=S)Nc3cccc(C)c3)C2)cc1 (stereo not given),"inconclusive: 70.8 µM [inhibitor, partial curve, poor fit]",–
CCCNC(=O)c1ccc2nc(-c3ccccc3)c(-c3ccccc3)nc2c1,–,inactive: -12.5%
O=C1c2ccccc2C(=O)N1c1ccc(Br)c2cccnc12,–,inactive: -12.4%
Cc1ccc(-c2nnc(N3CCN(c4ccccn4)CC3)c3ccccc23)cc1,"inconclusive: 22.4 µM [inhibitor, partial curve, poor fit]",–
O=C1c2ccccc2C(=O)N1/N=C/c1ccc(O)c(O)c1O,active: 1.58 µM,–
COC(=O)C1CCN(C(=O)COC(=O)c2cc(-c3ccccc3)nc3ccc(OC)cc23)CC1,active: 39.8 µM,–
COc1ccc(Cn2ccc3nc(C)c(C(=O)NCc4ccc(C)cc4)cc3c2=O)cc1,"inconclusive: 89.1 µM [inhibitor, partial curve, poor fit]",–
CN1/C(=C\C(=S)NC(=O)c2ccccc2Cl)C(C)(C)c2ccccc21,"inconclusive: 79.4 µM [inhibitor, single point]",–
CC(NC(=O)COC(=O)c1ccc([N+](=O)[O-])s1)c1ccccc1 (stereo not given),"inconclusive: 31.6 µM [inhibitor, partial curve, poor fit]",–
CC(=O)c1cccc(NC(=O)C2C3C=CC(C3=C(c3ccccc3)c3ccccc3)C2C(=O)O)c1 (stereo not given),"inconclusive: 22.4 µM [inhibitor, partial curve, poor fit]",–
Cc1c(Cc2ccccc2)c(=O)oc2c(C)c(OCC(=O)NCC3CCC(C(=O)O)CC3)ccc12 (stereo not given),"inconclusive: 25.1 µM [inhibitor, full curve]",–
COc1cc(OC)c2ccc(=O)oc2c1C(CC(=O)N1CCCC1)c1ccc2c(c1)OCO2 (stereo not given),"inconclusive: 17.8 µM [inhibitor, full curve, poor fit]",–
Cc1cc(NC(=O)CCCn2cc([N+](=O)[O-])cn2)n(Cc2ccc(F)cc2)n1,"inconclusive: 3.16 µM [inhibitor, full curve, poor fit]",–
Cc1ccc(C2C(C#N)=C(N)N(c3cccnc3)C3=C2C(=O)CCC3)s1 (stereo not given),active: 56.2 µM,–
CCOc1ccc(-c2cc(C(=O)NCCc3ccccc3)c3c(-c4ccc(C)cc4)[nH]nc3n2)cc1,–,inactive: -15.6%
O=C(NN1CCOCC1)c1cn(-c2ccccc2)nc1-c1cccs1,"inconclusive: 89.1 µM [inhibitor, partial curve, poor fit]",–
O=C(/C=C/c1ccccc1)c1ccc2c(c1)OCCCCO2,"inconclusive: 39.8 µM [inhibitor, single point]",–
O=C(CN1CCCSc2ccccc21)N1CCN(S(=O)(=O)c2ccccc2)CC1,"inconclusive: 0.316 µM [inhibitor, full curve, poor fit]",–
CCOC(=O)/C=C1\SCC(=O)N1CC(=O)c1ccc[nH]1,"inconclusive: 25.1 µM [inhibitor, partial curve]",–
O=C1CCCN1CCCNc1ncnc2c1[nH]c1ccc(Cl)cc12,"inconclusive: 50.1 µM [inhibitor, partial curve, poor fit]",–

Compound,Potency,"activity change, negative = inhibition"
COc1ccc(-n2c(C)cc(/C=C3\C(=N)N4N=C(CC(=O)N5CCOCC5)SC4=NC3=O)c2C)cc1,active: 31.6 µM,–
COCCN(C(=O)C(F)(F)F)C(C(=O)NC1CCCCC1)c1ccco1 (stereo not given),"inconclusive: 3.98 µM [inhibitor, partial curve, poor fit]",–
O=C1c2ccccc2C(=O)c2c(O)c(O)cc(O)c21,active: 31.6 µM,–
COc1ccc(-n2c(SCC(=O)Nc3nccs3)nnc2-c2ccc(Cl)cc2)cc1,"inconclusive: 89.1 µM [inhibitor, partial curve, poor fit]",–
O=C(CCCC(=O)n1cnc2ccccc21)n1cnc2ccccc21,"inconclusive: 25.1 µM [inhibitor, single point]",–
Cc1cc(C)c(C(=O)COc2cccnc2[N+](=O)[O-])cc1C,"inconclusive: 17.8 µM [inhibitor, partial curve, poor fit]",–
COc1cc2cc(CNc3ccccc3)c(=O)n(CC(=O)Nc3cc(C)cc(C)c3)c2cc1OC,"inconclusive: 100 µM [inhibitor, partial curve, poor fit]",–
O=C1NC(Cc2ccccc2)C(=O)N1Cc1ccccc1 (stereo not given),–,inactive: -10.9%
O=C(Nc1ccc2c(c1)nc1n2CCSC1)c1ccco1,"inconclusive: 14.1 µM [inhibitor, full curve, poor fit]",–
CCCCCOc1ccc(C(=O)NCC(=O)NCC(=O)OCC)cc1,"inconclusive: 89.1 µM [inhibitor, partial curve, poor fit]",–
O=C(CSc1nc(-c2ccc(F)cc2)cs1)NC(=O)NCc1ccco1,"inconclusive: 89.1 µM [inhibitor, partial curve]",–
COc1cc2cc(Oc3ccc4ccc(=O)oc4c3)c(=O)oc2cc1OC(C)=O,"inconclusive: 31.6 µM [inhibitor, partial curve, poor fit]",–
CCN1/C(=C/c2ccc3cc(C)ccc3[n+]2CC)Sc2cc(C)ccc21,"inconclusive: 44.7 µM [inhibitor, partial curve]",–
O=C(NC1CC1)c1cc(-c2ccco2)nc2ccccc12,active: 3.55 µM,–
C=C(CCC(=O)c1ccccc1)C(=O)c1ccccc1,active: 15.8 µM,–
Cc1ccc2oc(-c3ccc(Cl)c(NC(=O)c4ccc(OC(C)C)cc4)c3)nc2c1,–,inactive: 3.19%
Cn1ncc(N=Cc2c(O)ccc3ccccc23)c1C(=O)Nc1cccc(Cl)c1,active: 50.1 µM,–
COc1ccc(C(=O)COC(=O)CCN2C(=O)C3CC=CCC3C2=O)c(OC)c1 (stereo not given),"inconclusive: 39.8 µM [inhibitor, partial curve, poor fit]",–
CCOc1ccc2nc(NC(=O)CN3CCC(n4nnc5cc(F)ccc54)CC3)sc2c1,–,inactive: -1.22%
O=C(Nc1ccc(S(=O)(=O)Nc2nccs2)cc1)c1cc(-c2ccccc2)nc2ccccc12,active: 89.1 µM,–
CCCCNc1nc2c(c(=O)n(Cc3ccc(Cl)c(Cl)c3)c(=O)n2C)n1C,"inconclusive: 89.1 µM [inhibitor, partial curve, poor fit]",–
CC1(C)Cc2c(c(-c3ccccc3)[nH]c(=O)c2C#N)CO1,"inconclusive: 22.4 µM [inhibitor, partial curve, poor fit]",–

Compound,Potency,"activity change, negative = inhibition"
Cc1ccc2c(c1)[nH]c1c(=O)n(Cc3ccco3)cnc12,"inconclusive: 35.5 µM [inhibitor, partial curve, poor fit]",–
O=C1C(=Cc2ccco2)CCC1=Cc1ccco1,active: 0.794 µM,–
O=c1[nH]ncc(N2CCN(C(c3ccccc3)c3ccccc3)CC2)c1Cl,"inconclusive: 70.8 µM [inhibitor, partial curve]",–
O=C(Nc1nc(=O)c2ccccc2s1)c1ccc(Cl)cc1,"inconclusive: 12.6 µM [inhibitor, full curve, poor fit]",–
O=C1NC(=S)SC1=C1CCCC1,active: 20 µM,–
C=CCOC(=O)C1=C(C)NC(C)=C(C(=O)OCC=C)C1c1cccs1,"inconclusive: 15.8 µM [inhibitor, partial curve]",–
Cn1cc(/C=N/NC(=O)c2cccc([N+](=O)[O-])c2)c2ccccc21,"inconclusive: 12.6 µM [inhibitor, partial curve]",–
Cc1cc(C(=O)COc2ccccc2[N+](=O)[O-])c(C)n1-c1cccc(S(=O)(=O)N2CCOCC2)c1,–,inactive: -19%
CCCCn1c(NC(=O)c2ccccc2)c(C#N)c2nc3ccccc3nc21,"inconclusive: 56.2 µM [inhibitor, partial curve, poor fit]",–
O=C(O)c1ccc(COc2ccccc2/C=C2/NC(=O)N(c3cccc(Cl)c3)C2=O)cc1,active: 10 µM,–
O=C(NC1C(=O)NNC1c1ccccc1)c1ccc(F)cc1 (stereo not given),"inconclusive: 3.98 µM [inhibitor, partial curve, poor fit]",–
Cc1cc(-c2ccc(C)c(S(=O)(=O)Nc3cccc(C#N)c3)c2)on1,–,inactive: -10.8%
CCOC(=O)C1=C(C)N=c2s/c(=C\c3ccc(OCC(=O)O)cc3)c(=O)n2C1c1ccc(OC(C)C)cc1 (stereo not given),"inconclusive: 28.2 µM [inhibitor, single point]",–
Cc1ccc(-c2nnc(SCC(=O)NCc3ccccc3)nc2-c2ccc(C)cc2)cc1,–,inactive: -9.01%
Cc1cc(-c2ccccc2)nc(N/N=C/c2ccc(O)cc2)n1,"inconclusive: 79.4 µM [inhibitor, partial curve, poor fit]",–
COc1ccc2c(c1)[nH]c1c(=O)n(Cc3ccco3)cnc12,"inconclusive: 35.5 µM [inhibitor, full curve]",–
CC(C)Cn1c(=O)[nH]c(=O)c2c(C(F)(F)F)cc(-c3ccccc3)nc21,"inconclusive: 39.8 µM [inhibitor, partial curve, poor fit]",–
O=C(c1cc2ncc(Br)cn2n1)N1CCOCC1,–,inactive: 0.641%
CC(=O)c1cccc(S(=O)(=O)NC(C)C2CC3CCC2C3)c1 (stereo not given),"inconclusive: 56.2 µM [inhibitor, partial curve, poor fit]",–
Cc1cccc(-n2c(=O)c(C#N)cc3c(=O)n4ccccc4nc32)c1,"inconclusive: 20 µM [inhibitor, partial curve, poor fit]",–
Cc1cc(C(=O)C(=O)Nc2nnc(C(C)C)s2)c(C)n1-c1ccccc1,active: 39.8 µM,–
